This is an account of results in US20250361299A1 (published 2025).

For one assay, the target named is Recombinant human EGFR (human, UniProt P00533 in part). The assay is described as follows: ELISA; with uPA.
Another assay addresses T1, Human CD3 protein (human, UniProt P07766 23-126).
T1 chain: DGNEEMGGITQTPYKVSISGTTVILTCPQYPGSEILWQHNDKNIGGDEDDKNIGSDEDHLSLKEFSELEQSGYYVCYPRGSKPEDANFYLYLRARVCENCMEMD
The assay is described as follows: ELISA; with uPA.

B1: 1.7.1 proBiTE after uPA digestion (bispecific antibody)
heavy: SDNHGGGGSEVQLVESGGGLVQPGGSLRLSCAASGFTFNTYAMNWVRQAPGKGLEWVARIRSKYNNYATYYADSVKGRFTISRDDSKNTLYLQMNSLRAEDTAVYYCARHGNFGSSYVSYFAYWGQGTTVTVSSASTKGPSVFPLAPSSKSTSGGTAALGCLVKDYFPEPVTVSWNSGALTSGVHTFPAVLQSSGLYSLSSVVTVPSSSLGTQTYICNVNHKPSNTKVDKKVEPKS[human IgG1 Fc with T366L Y407H (EU numbers) cut from this listing]GGGGSGGGGSGGGGSGGGGSEVQLVETGGGVVQPGRSLRLSCAASGFTFSSYAMHWVRQAPGKGLEWVAVISYDGSNKYYADSVKGRFTISRDNSKNTLYLQMNSLRAEDTAVYYCARGYVARGDFDYWGQGTLVTVSSGGGGSGGGGSGGGGSGGGGSDVVMTQSPSTLSASVGDRVTITCRASQSMSRWLAWYQQKPGKGPKLLIYATSTLQSGVPSRFSGSGSGTEFTLTISSLQPEDFATYYCQQLDSFPFSFTFGPGTKVDLK
light: EIVVTQSPATLSVSPGERATLSCRSSTGAVTTSNYANWVQQKPGQAPRGLIGGANKRAPGVPARFSGSLSGDEATLTISSLQSEDFAVYYCALWYSNLWVFGQGTKLEIKRTVAAPSVFIFPPSDEQLKSGTASVVCLLNNFYPREAKVQWKVDNALQSGNSQESVTEQDSKDSTYSLSSTLTLSKADYEKHKVYACEVTHQGLSSPVTKSFNRGE[human IgG1 Fc with T366L Y407H (EU numbers) cut from this listing]GGGGSGGGGSGGGGSGGGGSEVQLVETGGGVVQPGRSLRLSCAASGFTFSSYAMHWVRQAPGKGLEWVAVISYDGSNKYYADSVKGRFTISRDNSKNTLYLQMNSLRAEDTAVYYCARGYVARGDFDYWGQGTLVTVSSGGGGSGGGGSGGGGSGGGGSDVVMTQSPSTLSASVGDRVTITCRASQSMSRWLAWYQQKPGKGPKLLIYATSTLQSGVPSRFSGSGSGTEFTLTISSLQPEDFATYYCQQLDSFPFSFTFGPGTKVDLK
B1: the EC50 with Recombinant human EGFR is 9.09 µg/mL; in the assay with Human CD3 protein, 2.33 µg/mL.

B2: 1.6.1 proBiTE after uPA digestion (bispecific antibody)
heavy: SDNHGGGGSEVQLVESGGGLVQPGGSLRLSCAASGFTFNTYAMNWVRQAPGKGLEWVARIRSKYNNYATYYADSVKGRFTISRDDSKNTLYLQMNSLRAEDTAVYYCARHGNFGSSYVSYFAYWGQGTTVTVSSASTKGPSVFPLAPSSKSTSGGTAALGCLVKDYFPEPVTVSWNSGALTSGVHTFPAVLQSSGLYSLSSVVTVPSSSLGTQTYICNVNHKPSNTKVDKKVEPKS[human IgG1 Fc with T366L Y407H (EU numbers) cut from this listing]
light: EVQLVETGGGVVQPGRSLRLSCAASGFTFSSYAMHWVRQAPGKGLEWVAVISYDGSNKYYADSVKGRFTISRDNSKNTLYLQMNSLRAEDTAVYYCARGYVARGDFDYWGQGTLVTVSSGGGGSGGGGSGGGGSGGGGSDVVMTQSPSTLSASVGDRVTITCRASQSMSRWLAWYQQKPGKGPKLLIYATSTLQSGVPSRFSGSGSGTEFTLTISSLQPEDFATYYCQQLDSFPFSFTFGPGTKVDLKGGGGSGGGGSGGGGSGGGGSEIVVTQSPATLSVSPGERATLSCRSSTGAVTTSNYANWVQQKPGQAPRGLIGGANKRAPGVPARFSGSLSGDEATLTISSLQSEDFAVYYCALWYSNLWVFGQGTKLEIKRTVAAPSVFIFPPSDEQLKSGTASVVCLLNNFYPREAKVQWKVDNALQSGNSQESVTEQDSKDSTYSLSSTLTLSKADYEKHKVYACEVTHQGLSSPVTKSFNRGE[human IgG1 Fc with T366L Y407H (EU numbers) cut from this listing]
With B2, the EC50 in the assay with Recombinant human EGFR stood at 1.19 µg/mL; with Human CD3 protein, 0.72 µg/mL.
